# Reference: PubChem BioAssay (NCI)
# Some compounds were tested as several samples or in several runs, with calls that do not always agree.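 Percent growth is the endpoint: 0 to 100 indicates growth inhibition (40 means 60% inhibition), 0 means no net growth, and negative values indicate cell death.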 Some entries of the source have several records that differ or are many. The list is limited to them. Rule for the calls: active = growth percent below 10; inactive = the rest. An entry can have further records. These are repeated runs of one drug, at the concentration stated with the values; each value is one run. Signs of the kind (2×) say how often a value occurs here.
# How the values were obtained:
# [1] = system: HT29 colon; test: NCI-60 one-dose screen, 48 h (100 = growth as untreated, 0 = no growth, -100 = all killed); conditions: 2.5 mM
# [2] = system: SNB-75 CNS; test: as above; conditions: 2.5 mM
structure (smiles),measurement,setting,value
O=c1[nH]cc(F)c(=O)[nH]1,growth,[1]; runs of 1995,"inactive: 23.9, 15.3, 15.8, 14.9, 15.4, 12.7, 13.5, 17.9, 14.4, 23.6, 13.9, 18.4, 22.7, 19.6, 13.8 (2×), 18.5, 16.8, 15.1, 12.9, 92.2, 10.3, 16.9, 10.6, 15.9, 16% and active: 6.03, 3.56, 7.46, -6.98, 2.68, 5.02, 5.06, 6.43, 0.173, 9.68, -3.72, 5.93, 6.05%"
same,growth,[1]; runs of 1996,"active: 9.43, -17.5, 9.28, 8.79 (2×), 5.57, 6.85, 6.08, 7.47, 9.96, -3.82, 4.53, 2.84, 5.84, -23.5% and inactive: 11.8, 17.1, 10.3, 12.3, 13.3, 17.8, 10.4 (2×), 10.1, 11.1, 16.6, 18.7 (2×), 15.8, 15.7, 11.2, 10.5, 10.8, 13.8, 17, 13, 12.5, 14.6, 14.9, 13.9, 33.6, 24.1, 16, 15.9, 22.6, 13.7, 19.5, 29, 23, 20.2, 25.7, 24.4, 21.1%"
same,growth,[1]; runs of 1997,"inactive: 20.6, 18.6, 18.7, 33.5, 10.1, 23.4, 19.9 (2×), 12.4 (2×), 14.9, 14.7, 16.8, 13.2, 13.8 (2×), 11.4, 14.4, 22.1, 19.1, 22.7, 20.3, 24.3, 17.7, 17.8, 18.8, 18.4, 112, 14.1, 24.1, 16.2, 25, 20.5, 11% and active: 5.12, 9.7, -8.64, 9.69, -1.01, 4.09, 8.39, 4.12%"
same,growth,[1]; runs of 1998,"inactive: 22.9, 18.3, 25.9, 25.1, 22.1, 23.7, 22 (2×), 13, 23.6, 35.8, 11.3 (2×), 16.9, 19.7, 13.5% and active: 7.2, 6.61, -25.5, 7.88, 2.43, 5.04, -2.47, -9.73%"
same,growth,[1]; runs of 1999,"inactive: 23.8, 18.5, 11.9, 10.6, 10.3, 13.7% and active: -75.1, 1.92, 1.22, -33.6, 0.178, 1.88, -20.8, -33.2, 0.176, -100, 1.58%"
same,growth,[1]; runs of 2000,"active: -37.9, 0.279, 0.869, -24.3%"
same,growth,[2]; runs of 1991,"inactive: 56.7, 38.1, 42.4, 24.4, 10.2, 41.2, 32.9, 32.8, 34.3, 62, 30.7, 26.6, 33.9% and active: -19.2, -10.7, -1.11, -9.3, -1.03%"
same,growth,[2]; runs of 1992,"active: -2.39, -0.862, -5.23, -17.6, -5.07, 7.52, -6.3, -1.29, -3.1, -11, 7.86, -5.42, -7.34, 2.57, -22.6, -1.02, -8.86, -10.9, 5.72, 3.7, 9.8, 6.13, -5.65, -5.48, -19.9, -5.49, 7.28, 1.9% and inactive: 26.9, 35.5, 22.5, 45.8, 16.4, 22.8, 23.3, 85, 16.1, 19.2, 25.6, 63.7, 11.4, 24.8, 36.5, 50.6, 33, 48.1, 39.6, 37.4, 59.2, 45.1, 17.4, 11.2, 19 (2×), 14.8, 10.6, 42.5, 26.6, 42.2, 68.2, 23.8, 59.5, 36, 47.4, 22.4 (2×), 40.7, 19.6, 34.8, 27.4 (2×), 36.7, 39, 29.7 (2×), 25, 29.9, 33.6, 81.2, 33.5, 32.1, 20.6, 32.8, 20.1, 21.6, 97.2, 54.4, 26.5, 13.5, 27.6, 26.3, 15.1, 42.1, 37, 13.6, 10.5, 21.8, 66.1, 15.5, 57.2, 18.4, 141, 67.1, 15.2, 38.5, 22.3, 42, 15.7, 20.4, 63.3, 32.9%"
same,growth,[2]; runs of 1993,"inactive: 57, 17.4, 41.4 (2×), 14.4, 42.2, 22.6, 21.7, 15.4, 35.6, 35.4, 29, 37.4, 17.2, 23.4, 27.3, 38.7 (2×), 34.6, 25.7, 38.1, 29.6 (2×), 11.4, 23.8, 27.9, 82.8, 27.8, 57.8, 15.2, 88.7, 15.7, 31.6, 34.1% and active: -3.21, -0.603, 0.997, 8.2, 4.88, -6.49, -15.6%"
same,growth,[2]; runs of 1994,"inactive: 22.7, 19.2, 34.1, 29.9, 42, 36, 31.1, 20.4, 46.1, 15.9, 32, 65.7, 53.5, 54.6, 26, 35.5, 18.4, 51.8, 13.9, 33.1, 33.5, 40.7, 20.9% and active: -19.7, -1.99, -3.6, -0.163%"
same,growth,[2]; runs of 1995,"inactive: 39.9, 37.5, 66.6, 40.7, 22.1, 21, 48.5, 13.4, 17, 45.9, 27.5, 12, 32.7, 30.5, 34.3, 25.4 (2×), 34.4, 54, 21.8, 35.2, 51.7, 53.6, 41.9, 44, 72.3, 38.4, 16.9, 63.5, 50.8% and active: 0.899, -14.7, -6.11, -5.69, -15.1, -6.66%"
same,growth,[2]; runs of 1996,"inactive: 24.6, 41.9, 21.8, 21.3, 27.9, 85.6, 27.7 (2×), 28.9, 35.6, 48.2, 44.5, 43.5, 27.6, 29.5, 20.4, 34.4, 43.8, 19.8, 23.9, 75.3, 35.4, 68.3, 28.1, 26.1, 43.6, 23.1, 46.6, 39.6, 30, 37.5, 19.5, 22.8, 24.5, 40, 46.4, 34.5, 32, 70.4, 81.1, 64.4, 17.4, 37.6, 26.8, 67.4, 33.8, 45.3, 64.9, 33.3, 36.6% and active: -9.83, -4.29, -2.25, -19.3, 0.297%"
same,growth,[2]; runs of 1997,"inactive: 46.5, 63.6, 16.6, 65 (2×), 42.3, 19.5, 65.8, 31.7, 30.6, 23.4, 37.4, 67.5, 14.6, 11.1, 42.5, 34.8, 14.3, 16.1, 21.2, 13.9, 36.1, 41.7, 31, 45, 24.7, 36.6, 31.1% and active: -0.433, 1.92, 6.39, 4.42, 6.25, 4.34, -8.19%"
same,growth,[2]; runs of 1998,"active: -8.79, -19.7, 6.28, -2.91% and inactive: 38.2, 43.4, 23.3, 54, 23.6, 18.3, 35.1, 30, 46.7, 27, 25.6, 40.2, 28.1, 14.9, 38.4%"
same,growth,[2]; runs of 1999,"active: -17.1, -0.578, -13.8, 5.31, 3.29, 1.54, -14.8, -25.5, 4.68% and inactive: 33.8, 54.5, 27.8, 26.2%"
